This is one part of the list.
These sequences were tested on PF3D7_0420300 AP2 domain 1 (GST-tagged) (assay: gcPBM binding intensity (ln(normalized median fluorescence intensity)); higher = stronger DNA binding).
How it was run: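 GST-tagged P. falciparum DNA-binding domains produced in E. coli were incubated for 1 h on an Agilent 4 × 180k array of primer-extended double-stranded 36-bp intergenic genomic probes with negative controls. Binding intensity is the highest Masliner-normalised natural-log median intensity across replicate spots of either probe orientation, with bound protein detected by Alexa488 anti-GST antibody at 488 nm.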
In the case of “AATAATGTATGAAATAAACACACAAGTAAGTACATA [CACACA_site8776]”, the “gcPBM binding intensity (ln)” value is reported as 9.7. “ATAATTTTAAATAAATGTACATATAGATGTGTGTAA [XGTACX_site3958]” was tested, and the “gcPBM binding intensity (ln)” value was 9.39. With “TTTTTTTTTTATGTTATTAAAAAAAAAAAAAATTAA [CACACA_negctrl_site222]” the “gcPBM binding intensity (ln)” value was 8.56. For “AAGATACACTTAATCGCACACGAAATTATATATTTA [CACACA_site3063]”, the “gcPBM binding intensity (ln)” value was 9.23. For “TATAACATTGTATGAATGCACTTTTATCTATTTTAA [GTGCAC_site9903]”, the “gcPBM binding intensity (ln)” value was 9.17. With “ATATATAATCATATGTGTACATATATATTAATTTAA [XGTACX_site2839]” the “gcPBM binding intensity (ln)” value was 9.17. “AATTCAAAATAAAAATGTACATATATCAGAATATGG [XGTACX_site42]” was tested, and the “gcPBM binding intensity (ln)” value was 9.35. “AAAAATAAGAAAAAGTGTACTTTATTATGTATATAT [XGTACX_site2305]” was tested, and the “gcPBM binding intensity (ln)” value was 9.2. For “ATTATTTTTTTTCTTATACACACCATGCATCAAACT [CACACA_site2128]”, the “gcPBM binding intensity (ln)” value was 9.46. In the case of “ACTTGTAAGAAACACACACACACACCGATATATATA [CACACA_site4594]”, the “gcPBM binding intensity (ln)” value is reported as 10.4. For “AAAAAAAAAAAAAAAACACACATTTAATGAACTTAT [CACACA_site1276]”, the “gcPBM binding intensity (ln)” value was 9.44. With “TATTGAAACCCACACGAACACACGTATTTCATAAAC [CACACA_site251]” the “gcPBM binding intensity (ln)” value was 9.56. In the case of “TATAAAAAGCATAACACACACATGTCAATATAAATA [CACACA_site6648]”, the “gcPBM binding intensity (ln)” value is reported as 9.78. With “TACTTTTATATAGAAAGTACATACAATTCATAGAAT [XGTACX_site2182]” the “gcPBM binding intensity (ln)” value was 9.11. For “TTTTTTTTTTTTTTGTGTACATATAATGCACATTAT [XGTACX_site6505]”, the “gcPBM binding intensity (ln)” value was 8.92. With “ATATATATATATATATGTACATATGTATGTGTTTGT [XGTACX_site397]” the “gcPBM binding intensity (ln)” value was 9.31. With “TATACTCATTTTTATACACACTTGTTTTATAAAACG [CACACA_site4561]” the “gcPBM binding intensity (ln)” value was 9.4. In the case of “CTATATGTATAAAGTTGTACAGTTTTTCAAAGTTAA [XGTACX_site6652]”, the “gcPBM binding intensity (ln)” value is reported as 9.03. “TATATATTTTATTATTGTACGAATTATTTATTTTAC [XGTACX_site8105]” was tested, and the “gcPBM binding intensity (ln)” value was 9.3. In the case of TACATCATCTATAAGGTGCATTTTAGTTCTATTAAA, the “gcPBM binding intensity (ln)” value is reported as 9.05. In the case of “TTTTTTCTAATATCTTTGCCTTTTTCTTTATTTATT [CACACA_negctrl_site1053]”, the “gcPBM binding intensity (ln)” value is reported as 9.52. In the case of “TTCATTTGAAAACTGTGTACTTAAAAATATACATAT [XGTACX_site176]”, the “gcPBM binding intensity (ln)” value is reported as 9.04. For “AATATAATATAATGCACACATAAACAAAAAAAAAAT [CACACA_site1304]”, the “gcPBM binding intensity (ln)” value was 9.89. With “ATATATTTAAATAAATGTACAAATCATAAATTCAAG [XGTACX_site1417]” the “gcPBM binding intensity (ln)” value was 9.16. “TACATATATATAAATACACACACACCCACCTTATAA [CACACA_site9346]” was tested, and the “gcPBM binding intensity (ln)” value was 10.1. In the case of “ATACATATACACATATGTACATATGAAAAGAAAAAT [XGTACX_site6445]”, the “gcPBM binding intensity (ln)” value is reported as 9.5. In the case of “TTATTAGAAAAATGCACACCAAAAAAAAAAAAAAAA [CACACA_site2522]”, the “gcPBM binding intensity (ln)” value is reported as 9.26. For “TATATATATTGTGTATGTACATATATATAAATATTG [XGTACX_site433]”, the “gcPBM binding intensity (ln)” value was 9.15. With “ATAATTATATATATATGTACATATTATATATATATA [XGTACX_site4526]” the “gcPBM binding intensity (ln)” value was 9.15. For “ATATACATATATATATGTACTGAAAAGAAAAGAATT [XGTACX_site150]”, the “gcPBM binding intensity (ln)” value was 9.29. For “CATAAATACATACATACACACATATTTATATTTATA [CACACA_site7071]”, the “gcPBM binding intensity (ln)” value was 9.71. “TGTTTTTAAATTTAAATCAAAAAATAAAATAAAATA [GTGCAC_negctrl_site355]” was tested, and the “gcPBM binding intensity (ln)” value was 8.89. “AAGATAACAAGTAATCAATCTAATTATTAATTATAT [CACACA_negctrl_site1713]” was tested, and the “gcPBM binding intensity (ln)” value was 9.15. “AAAAGAAAAATGTCATATGATATCATATATTTTATA [GTGCAC_negctrl_site185]” was tested, and the “gcPBM binding intensity (ln)” value was 9.01. For “AAAAATATGTGATAATGTACTTTTCATTTTTATTTT [XGTACX_site8544]”, the “gcPBM binding intensity (ln)” value was 9.17. In the case of “AAATTATGAACATATTGTACATATATATATATATAT [XGTACX_site8269]”, the “gcPBM binding intensity (ln)” value is reported as 9.12. In the case of “AATTAAATTACTTATACACACATAAAATGTCTGTAT [CACACA_site997]”, the “gcPBM binding intensity (ln)” value is reported as 9.55. With “CATGTATGTACCATGGTGCAACAATATTTTTAACAA [GTGCAC_site9597]” the “gcPBM binding intensity (ln)” value was 8.95. With “ATTATATAAATTATATGTACGTATTTTTTTTTTTTT [XGTACX_site1908]” the “gcPBM binding intensity (ln)” value was 9.26. “GAAAAGAAAAATAAACGTACATAAATATTAACATTA [XGTACX_site8213]” was tested, and the “gcPBM binding intensity (ln)” value was 9.2. With “CAAATAAAAATAAGGAGTACAATTAAAAAAGGAAGG [XGTACX_site4366]” the “gcPBM binding intensity (ln)” value was 9.59. “AAAATAAAAAAGTGTACACATATTAAAATGTATTTA [CACACA_site4424]” was tested, and the “gcPBM binding intensity (ln)” value was 9.33. For “TAAAATTATATAAAGGAACACACATTTTATTTTATT [CACACA_site8423]”, the “gcPBM binding intensity (ln)” value was 9.36. In the case of “TCATTGTTAAGCTGAAGTACTTATAATTACATCGAG [XGTACX_site6340]”, the “gcPBM binding intensity (ln)” value is reported as 9.04. “AATATATTTTAATATACACACATATCTGCTCTTTAA [CACACA_site6130]” was tested, and the “gcPBM binding intensity (ln)” value was 9.5. For “TGTCAATCATATAAATGTACATTTTAAATGAGGTGT [XGTACX_site7391]”, the “gcPBM binding intensity (ln)” value was 9.26. “TATTAGCATGTTATTACACACAATATAAAATATATA [CACACA_site1401]” was tested, and the “gcPBM binding intensity (ln)” value was 9.34. “TGTATAAAACATGGGTGTACTGAACTCAATCATATA [XGTACX_site1215]” was tested, and the “gcPBM binding intensity (ln)” value was 9.43. For “AAAAGTAACAAAGCTACACACATTTAAATAAACATA [CACACA_site1421]”, the “gcPBM binding intensity (ln)” value was 9.69. With “AAAATAACAAAATAAAGTACTTTTAAAAGATATAAT [XGTACX_site7632]” the “gcPBM binding intensity (ln)” value was 9.58. “GATTTTCTAATTTCTACACACATATAAGAATATTCA [CACACA_site7340]” was tested, and the “gcPBM binding intensity (ln)” value was 9.53. With “TTTTTAATTCAAACAATAATATGTTATATTTCAAAT [TGCATGCA_negctrl_site27]” the “gcPBM binding intensity (ln)” value was 8.88. For “TTTATTTCTATATTTACATGCAAAGGGTTAGTTATA [TGCATGCA_site983]”, the “gcPBM binding intensity (ln)” value was 9.02. With “TTTTTTTTTTTCATGTGTACATATATTTTCACTTTA [XGTACX_site4475]” the “gcPBM binding intensity (ln)” value was 9.37. “GATCTTTTTTTTCTTACTTTACAATTTTTTTTTTAC [XGTACX_negctrl_site101]” was tested, and the “gcPBM binding intensity (ln)” value was 9.5. With “AAGAAAAAGAATAGACGGACAACTAATATAAAATAT [XGTACX_site7905]” the “gcPBM binding intensity (ln)” value was 9.76. For “GTTTTACACAGACATGCATGTGAAAATTTGATGGTA [TGCATGCA_site308]”, the “gcPBM binding intensity (ln)” value was 9.34.
